# Results reported in PubChem BioAssay AID686978 (National Center for Advancing Translational Sciences (NCATS), 2013).
# Values joined by “and” are separate entries in the source; they are usually repeats but may differ in a detail not shown here. Equal values may be shown once. The whole screen tested about 420,000 compounds, of which about 64,000 (15%) were called active. Inconclusive means that the source gave no clear call. Such entries were picked first, then a sample of the others. Calls follow the shape of the dose curve; as a rule, active = well fitted inhibition curve with a large enough effect; inconclusive = small, poorly fitted or top-dose-only effect; inactive = flat fitted curve, though single readings scatter. Potencies beside an inconclusive call are fits to weak or partial responses and may not hold up.
# Assay: qHTS for Inhibitors of human tyrosyl-DNA phosphodiesterase 1 (TDP1): qHTS in cells in absence of CPT; also: nearly all actives have a fitted effect of over 55% in size
# Details: DT40 Tdp1-/- hTDP1 cells, no CPT, ATP luminescence, 48 h; activity change, negative = growth inhibition: at 46.2 µM (top of the series) unless noted
# How it was run: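 Compound effects on proliferation are scored in DT40 Tdp1-/-;hTDP1 cells in the absence of CPT. ATP levels (CellTiter-Glo luminescence) are recorded after a ≥48 hr, 37 °C incubation.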
# % is scaled to controls: 0 for no effect and ±100 for the full control effect; potency is read from the fitted curve at half-maximal effect; tags tell the direction and shape of the fitted curve.
Structure (SMILES),Potency,"activity change, negative = growth inhibition"
CCCCCCCCCCCCCC[N+](C)(C)Cc1ccccc1,active: 1 µM and active: 1.06 µM,–
Cc1ccc(NC(=O)Cn2ccnc2)cc1C,"inconclusive: 29.1 µM [inhibitor, single point]",–
COCC(=O)Nc1c(C(=O)Nc2ccc(C)cc2)oc2ccccc12,"inconclusive: 29.1 µM [inhibitor, single point]",–
c1ccc(-c2csc(Nc3ccc4c(c3)OCCO4)n2)cc1,"inconclusive: 23.1 µM [inhibitor, partial curve]",–
CCOc1ccc(S(=O)(=O)N(CC(=O)Nc2ccc3c(c2)OCO3)c2ccc(C)cc2)cc1,"inconclusive: 9.2 µM [inhibitor, partial curve]",–
CC(C)(C)C(=O)Nc1cccc(-c2nnc(-c3cccc(NC(=O)C(C)(C)C)c3)o2)c1,"inconclusive: 25.9 µM [inhibitor, partial curve]",–
CCn1c(/C=C/c2ccccc2F)nc2ccccc2c1=O,"inconclusive: 25.9 µM [inhibitor, single point]",–
O=C(OCc1ccccc1)/C(=C/c1cccc2ccccc12)NC(=O)c1ccccc1,"inconclusive: 10.3 µM [inhibitor, partial curve]",–
Cc1cccc(OCC(=O)N(Cc2nnc(-c3ccccc3Cl)o2)C2CC2)c1,"inconclusive: 29.1 µM [inhibitor, single point]",–
Cc1ccc(NS(=O)(=O)c2cccc(C(=O)NCC(c3ccc(F)cc3)N3CCOCC3)c2)cc1 (stereo not given),active: 16.4 µM,–
CSc1ccc(/C=C/C(=O)c2ccc(NC(=O)C(C)C)cc2)cc1,"inconclusive: 16.4 µM [inhibitor, single point]",–
CCc1nc2c(OCc3ccc(C(=O)OC)cc3)cccn2c1N(C)C(=O)c1ccc(OC)cc1,"inconclusive: 18.4 µM [inhibitor, single point]",–
O=C(NC1CCCC1)C(c1ccncc1)N(C(=O)Cc1cccs1)c1cccc(F)c1 (stereo not given),inactive,–
COC(=O)c1ccc2nc(-c3ccco3)c(Cc3ccc(OC)cc3C)n2c1,"inconclusive: 16.4 µM [inhibitor, single point]",–
CCOC(=O)c1ccc(-c2ccc(/C=C(\C#N)C(=O)Nc3ccc(C)cc3)o2)cc1,"inconclusive: 18.4 µM [inhibitor, single point]",–
COc1cc(CN(C(=O)c2ccc(Cl)cc2)C2CCS(=O)(=O)C2)cc(OC)c1OC (stereo not given),inactive,–
Cc1ccc(S(=O)(=O)c2c(C)nn(C(C)(C)C)c2OC(=O)C(C)(C)C)cc1,"inconclusive: 25.9 µM [inhibitor, single point]",–
COc1ccccc1NC(=O)C1CCCN(S(=O)(=O)c2ccc3[nH]c(=O)ccc3c2)C1 (stereo not given),"inconclusive: 10.3 µM [inhibitor, partial curve]",–
CCOC(=O)C1CCN(Cc2cnc(NC(=O)OC)s2)CC1,inactive,–
CC(C)(C)c1ccc(C(=O)NCC(=O)N2CCCCCC2)cc1,"inconclusive: 20.6 µM [inhibitor, partial curve]",–
COc1ccc(CCNC(=O)Cc2c(C)c3cc4c(C)coc4cc3oc2=O)cc1OC,inactive,–
O=c1[nH]n2c(=O)c3c([nH]c2c1N=Nc1cccc(Cl)c1)CCCC3,"inconclusive: 29.1 µM [inhibitor, single point]",–

Structure (SMILES),Potency,"activity change, negative = growth inhibition"
CCN(c1ccccc1)S(=O)(=O)c1ccc(Cl)c(NC(=O)CSc2ncn[nH]2)c1,"inconclusive: 4.61 µM [inhibitor, partial curve]",–
COc1ccc(/C=C(/NC(=O)c2ccc(C)cc2)C(=O)N2CCCC2)cc1OC,inactive,–
COc1ccc(C(=O)CSc2nnc(-c3cc4ccccc4cc3O)n2Cc2ccco2)cc1,"inconclusive: 13 µM [inhibitor, partial curve] and inconclusive: 28.2 µM [inhibitor, single point]",–
N=C1C(c2nc3ccccc3s2)=C(O)CN1Cc1ccccc1,active: 4.61 µM,–
CCN(CC)C(=O)c1ccc(-c2nnc(Nc3ccc(O)cc3)c3ccccc23)cc1,"inconclusive: 29.1 µM [inhibitor, single point]",–
CCOc1ccc(C2C(=O)N(C3CCCCC3)CC(=O)N2CCc2ccccc2)cc1OC (stereo not given),"inconclusive: 7.31 µM [inhibitor, partial curve, poor fit]",–
COCCCNC(=O)c1ccc(CN2CCc3ccccc3C2)cc1,"inconclusive: 20.6 µM [inhibitor, partial curve, poor fit]",–
O=C(Cn1cnc([N+](=O)[O-])c1)NCCc1ccccc1,inactive,–
CCCC(c1nnnn1Cc1ccc(F)cc1)N1CCN(CC)CC1 (stereo not given),"inconclusive: 16.4 µM [inhibitor, single point]",–
CCN(C[C@H]1N[C@@](CC)(C(=O)OC)[C@H]2C(=O)N(Cc3ccccc3)C(=O)[C@@H]12)C(=O)c1ccccc1,"inconclusive: 16.4 µM [inhibitor, single point]",–
N#CC1=C(N)Oc2cc(N)ccc2C1C1CCCCC1 (stereo not given),active: 20.6 µM,–
O=C(NCCc1c[nH]c2ccccc12)c1cc([N+](=O)[O-])cc([N+](=O)[O-])c1,inactive,–
Nc1nc2n(n1)C(c1ccc(Cl)cc1)CC(c1ccc(F)cc1)N2 (stereo not given),"inconclusive: 23.1 µM [inhibitor, single point]",–
O=C1Nc2ccc(Br)cc2C12NNc1ccccc1O2 (stereo not given),active: 18.4 µM,–
NC(=O)CC(NC(=O)Cc1ccc(Cl)cc1)c1ccc(NCC2CC2)c([N+](=O)[O-])c1 (stereo not given),"inconclusive: 25.9 µM [inhibitor, single point]",–
Oc1ccc(-c2nc3ccc(Cl)cn3c2Nc2ccc3c(c2)OCO3)cc1,"inconclusive: 23.1 µM [inhibitor, partial curve]",–
CCC1Sc2ccccc2N(CC(=O)NCc2ccc3c(c2)OCO3)C1=O (stereo not given),"inconclusive: 35.5 µM [inhibitor, single point]",–
Cc1noc(C)c1-c1nccc(NCc2cccs2)n1,"inconclusive: 29.1 µM [inhibitor, single point]",–
CC(C)(C)NC(=O)N1CCCN(c2ccc(C(F)(F)F)cn2)CC1,"inconclusive: 20.6 µM [inhibitor, partial curve, poor fit]",–
O=C(Cc1c(F)cccc1Cl)N1CCN(S(=O)(=O)c2cccc(F)c2)CC1,inactive,–
FC(F)(F)C(F)(F)C(F)(F)c1nnc2ccc(N3CCOCC3)nn12,–,inconclusive: -38.2% [inhibitor]
COC(=O)[C@@]12CCCCN1[C@H](c1ccc(-c3ccc(C(C)=O)cc3)cc1)[C@@H]1C(=O)N(C)C(=O)[C@@H]12,active: 23.1 µM,–

Structure (SMILES),Potency,"activity change, negative = growth inhibition"
Cc1cccc(C(=O)N[C@@H]2c3ccccc3C[C@@H]2O)n1,inactive,–
CCOC(=O)c1c(NC(=O)C(C)OC(=O)C2=COCCO2)sc2c1CCCC2 (stereo not given),"inconclusive: 23.1 µM [inhibitor, single point]",–
Oc1ccc(-c2nc3ccc4ccccc4c3c3c2CCC3)cc1O,"inconclusive: 1.03 µM [inhibitor, full curve, poor fit]",–
O=C(NN=Cc1c(F)c(F)c(F)c(F)c1F)c1ccc(NS(=O)(=O)c2cccs2)cc1,"inconclusive: 29.1 µM [inhibitor, single point]",–
Cc1cc(NS(=O)(=O)c2ccc3c(c2)OCCO3)no1,inactive,–
O=C(N[C@@H]1C/C=C\C[C@@H](CC(=O)N(CCO)Cc2ccccc2)C(=O)N[C@H](Cc2ccccc2)COC1=O)OCC1c2ccccc2-c2ccccc21,active: 4.61 µM,–
O=C1CC(=O)Nc2cc(S(=O)(=O)N3CCOc4ccc(Cl)cc43)ccc2N1,"inconclusive: 23.1 µM [inhibitor, single point] and inconclusive: 6.51 µM [inhibitor, full curve, poor fit]",–
O=C(NCC1CCCN1S(=O)(=O)c1cccs1)C(=O)Nc1ccccc1 (stereo not given),"inconclusive: 29.1 µM [inhibitor, single point]",–
COc1ccc(OC)c(Nc2cc(C)nc3ccc(C)cc23)c1,active: 5.17 µM,–
OCCCCNCc1cc(Br)ccc1OCc1ccccc1F,"inconclusive: 18.4 µM [inhibitor, single point]",–
COc1ccc(N(C(=O)c2ccccc2)S(=O)(=O)c2ccc3c(c2)n(C)c(=O)n3C)cc1,"inconclusive: 25.9 µM [inhibitor, single point]",–
O=C(NCc1ccc(Cl)cc1)C1CCN(S(=O)(=O)c2ccccc2)CC1,"inconclusive: 29.1 µM [inhibitor, single point]",inconclusive: -31.3% [inhibitor]
COc1ccc(C2CC(=O)c3c(O)cc(O)cc3O2)cc1O (stereo not given),"inconclusive: 20.6 µM [inhibitor, single point] and inconclusive: 29.1 µM [inhibitor, single point]",–
O=C(NNc1ccc(F)cc1F)c1cccs1,inactive,–
O=C(NC1CC(=O)N(c2ccc(F)cc2)C1)c1ccc2c(c1)OCO2 (stereo not given),inactive,–
CCC(CC)C(=O)N(C)c1c(C)nc2c(OCCOc3ccc(F)cc3)cccn12,active: 18.4 µM,–
Cc1ccc(NS(=O)(=O)c2ccc(NC(=O)c3cccs3)cc2)cc1,"inconclusive: 29.1 µM [inhibitor, single point]",–
Cc1cccc(C(=O)N2CCN(C(=O)c3cccc(C)c3)C(C)C2)c1 (stereo not given),"inconclusive: 20.6 µM [inhibitor, partial curve]",–
CC1CCCCN1c1ncnc2ccccc12 (stereo not given),active: 10.3 µM,–
O=C1CCc2cc(S(=O)(=O)NCc3ccc(F)cc3)cc3c2N1CCC3,"inconclusive: 32.6 µM [inhibitor, single point]",–
